The record followed here is the supplement of paper PMC10126150.

Sequences with one replicate were seen in a single cluster, so their values are uncertain.

For the data set, the system named is ATP. Nature of the data set: switch fluorescence ratio, 500 uM ATP over buffer (Cy3 cluster intensity, sum of 5 cycles each) (fold (ratio)); higher = stronger signal-on switching upon ATP binding; sequences stand for … in TCGTCGGCAGCGTCAGATGTGTATAAGAGACAGTTTTTTTTTTTTTTTTTTTTTTTTT…TC. Conditions: aptamer strand: ATP DNA aptamer (quencher-CACCTGGGGGAGTATTGCGGAGGAAGG + anchor), 100 nM annealed; ATP concentration: 500 uM; one replicate. The method in brief: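 Cy3-labelled switching-strand clusters on a modified Illumina MiSeq flow-cell were annealed to 100 nM quencher-labelled ATP aptamer and imaged first in selection buffer, then after 15 min with 500 uM ATP at 22 °C. NaOH stripping and re-annealing separated each of five buffer/ATP cycles, and clusters outside 100-1000 RFU were excluded. The fluorescence ratio sums target-cycle Cy3 intensity over buffer-cycle Cy3 intensity per cluster and averages it per switch-domain sequence.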
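Further: ATP exposure 15 min at 22 °C before imaging.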

As for GATGCACAA, the switch fluorescence ratio came to 1.05. The result for AGGATCCGGC reads 1.04; that for GGATCTTATA, 0.989; that for AAACCCGAGT, 1.02. The result for AATAATAGG reads 1.01; that for GCGTGTTTGT, 0.969. As for AGTTTCTAAC, the switch fluorescence ratio is 1.01. For the sequence ATTCAGTGAA, the switch fluorescence ratio was 0.983. As to TTAGTTAATT, the switch fluorescence ratio amounted to 1.19. The figure for AACTTGACTA is 1.04; for TCTCCGAGCG it is 1.52. The result for TTCCTCGATT reads 1.05; that for AGCAGAGCAG, 1.02; that for AACTACGGAT, 1.08. On to GTCCTACGTA, for which the switch fluorescence ratio was determined as 1.2. The figure for CTTTTGCCGT is 0.948; for AAATACACGG it is 1.07. Turning to TGAGTTCGGT, the switch fluorescence ratio was found to be 0.975. The result for AGGTAGGGAG reads 0.982; that for CTTTTGTCTT, 0.996; that for GAGCCATCGA, 0.961. The result for GTATGTGGTG reads 1.01; that for TCACCTATC, 1.05. Take AAAGTAAGAA: the switch fluorescence ratio came to 0.985.

Take GCCTATCACA: the switch fluorescence ratio amounted to 0.997.

As to TGTCAAAATA, the switch fluorescence ratio was found to be 1.04. Consider CTCTCTCTAT, for which the switch fluorescence ratio is 1.03. The figure for GTCGTGGATG is 0.99.

GGGAAGTCGC: the switch fluorescence ratio is 0.981. In the case of TCTATACAC, the switch fluorescence ratio came to 1.07. With GCCACTGGGG, the switch fluorescence ratio came out at 1.01. In the case of TCGGGGGACC, the switch fluorescence ratio amounted to 1.01.

With GTCGGTGCAA, the switch fluorescence ratio came out at 1.24. Take GACGCTTAGG: the switch fluorescence ratio came out at 1.05.

With GGGGAGTTCC, the switch fluorescence ratio was found to be 1.1. The result for ACGGGGGCCA reads 0.98; that for ATCACGAGGC, 1.01; that for ACTGTCAAAG, 0.999. On to CACGGGCATA, for which the switch fluorescence ratio came to 1.12. As to GGGTATGACA, the switch fluorescence ratio was found to be 1. The result for TCGGATACGT reads 1.01; that for TGCGGATTTT, 1.04. Regarding AAGTGCGCCG, the switch fluorescence ratio was 1.06. The result for TGCCGGAG reads 1.02. ACAGGCAAGT: the switch fluorescence ratio is 0.969. Regarding CAAACGACAG, the switch fluorescence ratio is 1.01.

For CGCCTTTCGA, the switch fluorescence ratio is 1.06.

Take TCAGTCGTGT: the switch fluorescence ratio was 0.98. Regarding TTCGCTTTGT, the switch fluorescence ratio was determined as 1.03.

Turning to GGGTCGTTGT, the switch fluorescence ratio was found to be 1.04. For TTGGTGCTCC, the switch fluorescence ratio amounted to 1.03.

Turning to AGCAGGTCGA, the switch fluorescence ratio turned out to be 1.03. With TGACCGTGAG, the switch fluorescence ratio is 1.

Take TTTCCTAAAA: the switch fluorescence ratio amounted to 1.02. The result for TCGAGTGGCG reads 0.987.

Consider TGTCACAGCA, for which the switch fluorescence ratio stood at 1.02. The result for GCCTCCCATT reads 1.95; that for TGCCTTATAA, 0.96; that for CCACGCCTAA, 1.49.

ACGGGCGACT: the switch fluorescence ratio is 0.948. The result for GCTTAGATGG reads 0.985. The figure for AGTTCGAAGG is 0.994; for GCTGTTTCAA it is 0.974. The figure for TGACTTAGA is 1.03; for CGCTTCGATT it is 0.967; for GAGGTAAG it is 1.04. On to AGAGGGCGCA, for which the switch fluorescence ratio was determined as 0.987.
